# Measurements reported in PMC10726135.
# The list shows a part of the results. At the low end of the ranking the order means little. The protein was read in a cell extract, so binding may be indirect.
# Target: T1, HNF4alpha8 (COS-7 nuclear extract) (UniProt P41235-5)
# T1 sequence: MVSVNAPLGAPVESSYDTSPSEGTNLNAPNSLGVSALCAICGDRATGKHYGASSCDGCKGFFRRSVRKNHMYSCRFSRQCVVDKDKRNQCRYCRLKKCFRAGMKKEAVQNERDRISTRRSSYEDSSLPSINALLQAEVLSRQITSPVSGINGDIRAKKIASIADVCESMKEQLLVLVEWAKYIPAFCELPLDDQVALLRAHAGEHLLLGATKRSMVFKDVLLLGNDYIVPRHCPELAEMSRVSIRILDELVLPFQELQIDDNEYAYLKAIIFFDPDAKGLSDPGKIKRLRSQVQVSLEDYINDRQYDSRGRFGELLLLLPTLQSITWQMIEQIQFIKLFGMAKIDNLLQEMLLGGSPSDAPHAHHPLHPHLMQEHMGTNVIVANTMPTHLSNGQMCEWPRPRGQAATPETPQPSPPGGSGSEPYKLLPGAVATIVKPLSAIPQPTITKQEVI
# Assay: protein-binding microarray
# Conditions: COS-7 nuclear extract on double-stranded Agilent 4x180k PBM; binding buffer, salt, pH and temperature not given; high values mean tight binding; double strand, one strand shown; sequences stand for … in …GCCTAGGGAGATTAGAGTATCGGTCGA
row,Sequence,binding signal (log2 normalized intensity)
1,TCTACTTGGTGGGAGGAGGGGGGAGGGTCG,-1.13
2,TTTCTCTGCACACACTCACAGAACACAGTG,-1.39
3,AACTTTCTTTTTGTTGTTAGAACAAAGTCC,4.6
4,GGCAGCCAGCTGGTTTGCCTCTCTTAGGTG,-1.29
5,AGCAGCTAGCAAATACAAGGACACTGAAAG,-1.33
6,ACACATGATAAGATTTATCTCTCCAAGGTA,-1.25
7,CAGAAGGCGCTGAACTTTGCCTTGTACACA,3.91
8,AATCCTCAGCCTTCTCCGCGGCGGGCCCTC,-1.42
9,TATATTGGATAGTGCCTTTTCTAATATCTA,0.499
10,TAACGACCTTTGGGCTAAAAAGGAAGCTGT,2.73
11,TGGAGAAAGCAGCCAACCAGAGGCTGAAGT,-1.17
12,TAGGAGACTGTCTTAGGAAAGAACAGGTCA,0.841
13,GAGGAGTTAAAGCACAGTGTCTTTGTTTGG,1.49
14,GTCTGGCATACAGGGTCCAAAGGTGTCAAG,5.19
15,CCAGAATTCTCCCTGCAGTCCTCTGCTTAT,-1.22
16,CAAATTCCACACCCCCCACTCTTCATATCT,3.32
17,TCGTCCCGTCAATCTGCAGCCGCCGGAGAA,-1.13
18,CCAGGAAGCAAGACAATGCACTCATAACTA,-1.4
19,GGTAGCCACTGACAGGAGGTATGCCAGGAA,-1.37
20,CCTGGTATTAATGAGGCAAAGGTCAGGAGT,4.67

row,Sequence,binding signal (log2 normalized intensity)
1,CTGGACTATGCCTTGAACTTTAAGGCACCT,1.67
2,TTTGACCGCTCATTTGATCCTCACAGTGCC,0.107
3,CCAACGGTCGGAAGGGAGGTGCCATGTCAC,-1.29
4,AGGGTAGGAGCCTCTGATTTGCTGATCCTA,-1.33
5,TTTTCAACAATGTTATCTTTTCAAGGATGT,1.42
6,CCTGCTGGCCTGGGAACTTAGCGATTTGGA,-1.08
7,AACTCTGAAGATTCACAGGTGGGATGCAAA,-1.06
8,GAAGATAAATCAGAAGAAAAAGGTAAGGAG,-1.37
9,CTCCGCCCCGTTCCCGGCAGCCCGCGCGTG,2.56
10,TCCACTCTCCTATCTTTCCCTCCACTTCCT,-0.225
11,GGCGTGGACTTCGCTCCGCCGCTAGGTGGC,3.13
12,TGGACAAACAGGCTGAACATGACTGGCATT,-1.3
13,CGATAAGCTGACCCCAAAACCCCCAAAGGT,5.01
14,ACAAAGTTCCTGAGATAAAAAGAAGCTTGG,-1.25
15,AGCTCCATCTGAACTCTTCATGGACTCCTC,2.68
16,AATTCTTGTCCCTTTCAAGGGCTTACAACT,-0.163
17,TGAGCCCAGTGGAGTAGGCTTTAGATAAGG,-1.25
18,AAAAGAGCATAAGGTTTCCATCAAGCCTTT,-1.26
19,CTGGGTCTGTCCTTTGTGTTTATGGCAAAT,2.08
20,TTCATAATTACCATTCTTGAGGACAGGCCA,0.215
